± gives the standard deviation of the averaged measurements. Laboratory Escherichia coli strains with one amino-acid change in an essential protein, pooled on minimal glucose agar with carbenicillin or gentamicin at twice the control MIC (plus kanamycin and chloramphenicol for the plasmids), 48 h. Fold change of barcode share against drug-free plates; higher = less susceptible. Active = above 20 in both replicates (the paper's putatively resistant). '<' = one read or none on drug, '>' = one read or none on a drug-free plate. Shares are relative, so most strains fall below 1 when a few take over. Listed are strains with at least 15 reads on both drug-free plates, and hits; most hits rest on fewer reference reads. Replicate rank correlation about 0.5. Edits are read from barcodes.
B1: glmU; numbered along this chain (parent)
chain: MLNNAMSVVILAAGKGTRMYSDLPKVLHTLAGKAMVQHVIDAANELGAAHVHLVYGHGGDLLKQALKDDNLNWVLQAEQLGTGHAMQQAAPFFADDEDILMLYGDVPLISVETLQRLRDAKPQGGIGLLTVKLDDPTGYGRITRENGKVTGIVEHKDATDEQRQIQEINTGILIANGADMKRWLAKLTNNNAQGEYYITDIIALAYQEGREIVAVHPQRLSEVEGVNNRLQLSRLERVYQSEQAEKLLLAGVMLRDPARFDLRGTLTHGRDVEIDTNVIIEGNVTLGHRVKIGTGCVIKNSVIGDDCEISPYTVVEDANLAAACTIGPFARLRPGAELLEGAHVGNFVEMKKARLGKGSKAGHLTYLGDAEIGDNVNIGAGTITCNYDGANKFKTIIGDDVFVGSDTQLVAPVTVGKGATIAAGTTVTRNVGENALAISRVPQTQKEGWRRPVKKK
B2: gpsA; numbered along this chain (parent)
chain: MNQRNASMTVIGAGSYGTALAITLARNGHEVVLWGHDPEHIATLERDRCNAAFLPDVPFPDTLHLESDLATALAASRNILVVVPSHVFGEVLRQIKPLMRPDARLVWATKGLEAETGRLLQDVAREALGDQIPLAVISGPTFAKELAAGLPTAISLASTDQTFADDLQQLLHCGKSFRVYSNPDFIGVQLGGAVKNVIAIGAGMSDGIGFGANARTALITRGLAEMSRLGAALGADPATFMGMAGLGDLVLTCTDNQSRNRRFGMMLGQGMDVQSAQEKIGQVVEGYRNTKEVRELAHRFGVEMPITEEIYQVLYCGKNAREAALTLLGRARKDERSSH

Tests used:
[1] = variants of: B1; experiment: barcode share on antibiotic plates over drug-free plates; higher = less susceptible; conditions: with Escherichia coli (laboratory strain)
Method: (§1)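 A pool of E. coli strains, each edited to carry one amino-acid change in an essential protein, was grown for 48 h on minimal glucose agar with or without antibiotic; strain barcodes were sequenced; mean of two replicates.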

[2] = variants of: B2; experiment: as above; conditions: with Escherichia coli (laboratory strain); remark: listed apart in the source
Method: as §1

[3] = antibiotic: carbenicillin, 2× MIC (3.1 µg/mL)
[4] = antibiotic: gentamicin, 2× MIC (MIC 0.45 µg/mL)

Row | Variant | fold change of barcode share [1, 3] | fold change of barcode share [1, 4] | fold change of barcode share [2, 3] | fold change of barcode share [2, 4]
1 | L129A | 0.413 ± 0.018 | 0.00408 ± 0.0042 |  | 
2 | L129D | 0.617 ± 0.31 |  |  | 
3 | L129Q | 0.403 ± 0.041 | 0.0143 ± 0.018 |  | 
4 | L129W | 0.363 ± 0.063 | 0.0238 ± 0.0097 |  | 
5 | L173Q | 0.23 ± 0.086 | < 0.0171 |  | 
6 | I174D | 0.137 ± 0.037 | < 0.0132 |  | 
7 | I174Q | 0.28 ± 0.016 | 0.6 ± 0.34 |  | 
8 | W183A | 1.51 ± 1.1 | < 0.00856 |  | 
9 | W183D | 0.329 ± 0.18 | < 0.00895 |  | 
10 | W183P | 0.317 ± 0.18 |  |  | 
11 | W183Q | 0.38 ± 0.16 | < 0.0108 |  | 
12 | L173W |  | < 0.0163 |  | 
13 | I174W |  | < 0.0141 |  | 
14 | MNQRNASMTVIGAGSYGTALAITLARNGHEVVAWGHDPEHIATLERDRCNAAFLPDVPFPDTLHLESDLATALAASRNILVVVPSHVFGEVLRQIKPLMRPDARLVWATKGLEAETGRLLQDVAREALGDQIPLAVISGPTFAKELAAGLPTAISLASTDQTFADDLQQLLHCGKSFRVYSNPDFIGVQLGGAVKNVIAIGAGMSDGIGFGANARTALITRGLAEMSRLGAALGADPATFMGMAGLGDLVLTCTDNQSRNRRFGMMLGQGMDVQSAQEKIGQVVEGYRNTKEVRELAHRFGVEMPITEEIYQVLYCGKNAREAALTLLGRARKDERSSH [L33A] |  |  | 0.237 ± 0.031 | 0.00857 ± 0.007
15 | MNQRNASMTVIGAGSYGTALAITLARNGHEVVDWGHDPEHIATLERDRCNAAFLPDVPFPDTLHLESDLATALAASRNILVVVPSHVFGEVLRQIKPLMRPDARLVWATKGLEAETGRLLQDVAREALGDQIPLAVISGPTFAKELAAGLPTAISLASTDQTFADDLQQLLHCGKSFRVYSNPDFIGVQLGGAVKNVIAIGAGMSDGIGFGANARTALITRGLAEMSRLGAALGADPATFMGMAGLGDLVLTCTDNQSRNRRFGMMLGQGMDVQSAQEKIGQVVEGYRNTKEVRELAHRFGVEMPITEEIYQVLYCGKNAREAALTLLGRARKDERSSH [L33D] |  |  | 0.245 ± 0.019 | < 0.00387
16 | MNQRNASMTVIGAGSYGTALAITLARNGHEVVQWGHDPEHIATLERDRCNAAFLPDVPFPDTLHLESDLATALAASRNILVVVPSHVFGEVLRQIKPLMRPDARLVWATKGLEAETGRLLQDVAREALGDQIPLAVISGPTFAKELAAGLPTAISLASTDQTFADDLQQLLHCGKSFRVYSNPDFIGVQLGGAVKNVIAIGAGMSDGIGFGANARTALITRGLAEMSRLGAALGADPATFMGMAGLGDLVLTCTDNQSRNRRFGMMLGQGMDVQSAQEKIGQVVEGYRNTKEVRELAHRFGVEMPITEEIYQVLYCGKNAREAALTLLGRARKDERSSH [L33Q] |  |  | 0.353 ± 0.046 | 0.00867 ± 0.0076
17 | MNQRNASMTVIGAGSYGTALAITLARNGHEVVWWGHDPEHIATLERDRCNAAFLPDVPFPDTLHLESDLATALAASRNILVVVPSHVFGEVLRQIKPLMRPDARLVWATKGLEAETGRLLQDVAREALGDQIPLAVISGPTFAKELAAGLPTAISLASTDQTFADDLQQLLHCGKSFRVYSNPDFIGVQLGGAVKNVIAIGAGMSDGIGFGANARTALITRGLAEMSRLGAALGADPATFMGMAGLGDLVLTCTDNQSRNRRFGMMLGQGMDVQSAQEKIGQVVEGYRNTKEVRELAHRFGVEMPITEEIYQVLYCGKNAREAALTLLGRARKDERSSH [L33W] |  |  | 0.245 ± 0.081 | 0.0114 ± 0.0098
